From publication PMC4336329 (PLoS ONE, 2015)
Out of some 310,000 compounds screened, about 2,200 (0.71%) showed an effect of 50% or more. Effects have a minus sign here. The list shows a part of the results.

molecular target: human ether-à-go-go-related gene (hERG) potassium channel (human, UniProt Q12809); experiment: primary screen, population patch clamp on CHO cells stably expressing hERG
Sequence (Q12809 whole entry, looked up): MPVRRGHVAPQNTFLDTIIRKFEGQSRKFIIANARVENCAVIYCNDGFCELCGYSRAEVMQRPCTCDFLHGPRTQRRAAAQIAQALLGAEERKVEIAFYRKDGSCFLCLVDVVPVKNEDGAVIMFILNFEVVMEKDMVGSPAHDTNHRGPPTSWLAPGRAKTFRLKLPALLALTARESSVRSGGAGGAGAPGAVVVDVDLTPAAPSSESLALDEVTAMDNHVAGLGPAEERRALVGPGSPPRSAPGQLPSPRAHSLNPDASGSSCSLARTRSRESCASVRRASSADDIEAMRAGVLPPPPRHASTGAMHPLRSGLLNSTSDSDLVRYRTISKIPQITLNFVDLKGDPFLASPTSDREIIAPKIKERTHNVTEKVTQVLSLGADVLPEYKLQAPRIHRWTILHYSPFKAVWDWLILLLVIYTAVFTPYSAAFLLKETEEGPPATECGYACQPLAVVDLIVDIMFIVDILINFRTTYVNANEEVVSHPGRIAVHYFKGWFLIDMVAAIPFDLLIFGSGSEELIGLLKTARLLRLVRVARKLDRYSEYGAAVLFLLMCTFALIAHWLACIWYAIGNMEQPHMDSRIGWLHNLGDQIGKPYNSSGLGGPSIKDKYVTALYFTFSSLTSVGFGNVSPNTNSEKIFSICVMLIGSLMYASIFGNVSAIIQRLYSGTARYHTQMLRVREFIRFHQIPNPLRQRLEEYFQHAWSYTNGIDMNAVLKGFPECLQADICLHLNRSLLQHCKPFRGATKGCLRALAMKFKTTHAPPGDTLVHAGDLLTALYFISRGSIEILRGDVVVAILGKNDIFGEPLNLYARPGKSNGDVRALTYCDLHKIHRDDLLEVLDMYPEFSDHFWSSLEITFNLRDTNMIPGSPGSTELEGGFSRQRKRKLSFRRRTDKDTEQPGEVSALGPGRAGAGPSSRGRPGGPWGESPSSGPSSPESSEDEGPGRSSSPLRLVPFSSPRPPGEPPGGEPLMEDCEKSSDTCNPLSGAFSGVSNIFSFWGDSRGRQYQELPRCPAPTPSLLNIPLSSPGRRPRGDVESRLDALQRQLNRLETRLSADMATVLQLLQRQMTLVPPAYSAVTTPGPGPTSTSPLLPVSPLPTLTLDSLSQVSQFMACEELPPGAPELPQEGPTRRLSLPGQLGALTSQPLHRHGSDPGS

Structure (SMILES) | hERG current change (%, negative = inhibition) at 1uM [%]
Fc1ccccc1CNCCc1ccc2c(c1)OCO2 | 8.75
CCC(CC)C(=O)Nc1c2cnn(-c3ccccc3)c2nc(=O)n1-c1ccccc1 | -4.94
O=C(CSc1nc2ccc(Cl)cc2[nH]1)NCc1ccco1 | -8.29
CCOC(=O)CSc1ncc(-c2ccc([N+](=O)[O-])cc2)[nH]1 | -23.4
Cc1cccn2c(=O)nc(SCC(=O)NCc3ccc4c(c3)OCO4)nc12 | -1.11
O=C(COC(=O)/C=C/c1cccc(C(F)(F)F)c1)NCc1cccs1 | 2.97
CCOC(=O)c1[nH]c(C)c(C(=O)OCCN2C(=O)c3ccccc3C2=O)c1C | 5.44
COc1cc2c(cc1OC)C(C(=O)Nc1cc(OC)c(OC)c(OC)c1)C(c1cccnc1)N(C)C2=O (stereo not shown) | 1.6
CCOC(=O)C1=C(C)N=c2s/c(=C/c3ccc(OCC(=O)O)cc3)c(=O)n2C1c1ccc(OC)cc1OC (stereo not shown) | 20.5
Cc1ccc2cccc(S(=O)(=O)Nc3c(C)n(C)n(-c4ccccc4)c3=O)c2n1 | 4.83
Cc1ccc(S(=O)(=O)N/N=C\c2cc([N+](=O)[O-])ccc2Cl)cc1 | 16.5
CCc1ccc(NC(=O)C(=O)NNC(=O)c2cccc(OC)c2)cc1 | 7.93
CCN(CC)c1ccc(/C=C(\C#N)C(=O)c2ccc(Br)cc2)cc1 | 10.6
O=C(Nc1ccsc1C(=O)N1CCCC1)c1ccccc1 | 11.5
c1ccc(-n2ncc3c(N4CCC5(CC4)OCCO5)ncnc32)cc1 | 11
N#Cc1c(N)n(CCNC(=O)c2ccccc2)c2nc3ccccc3nc12 | 22
Cc1ccc(OCC(=O)Nc2ccc3c(c2)nc(CCN2CCN(C)CC2)n3C)cc1 | -5.14
N#Cc1c(N)nc2c(c1-c1cccc(O)c1)CCCCCC2 | 1.64
Cc1ccc(C(=O)Nc2cccc3ccccc23)cc1 | 16.9
COc1cc(OC)c(N(C)S(=O)(=O)c2cccc(C(=O)Nc3nnc(C4CC4)s3)c2)cc1Cl | 2.85
O=C(N/N=C/C=C\c1cccc([N+](=O)[O-])c1)c1cccnc1 | 4.51
O=C(CSc1nnc(-c2cccnc2)n1Cc1ccco1)c1ccc2ccccc2c1 | -11.8

Structure (SMILES) | hERG current change (%, negative = inhibition) at 1uM [%]
O=c1c2cc(Cl)ccc2[nH]c(=S)n1Cc1cccs1 | 5.16
CCOC(=O)c1nn(-c2cccc(Cl)c2)c2nc(CC(C)C)c(C#N)c(=O)n12 | 4.55
CSc1nnc(NC(=O)c2ccc3c(c2)OCO3)s1 | 11.3
CCOC(=O)C(NC(C)=O)(Nc1ccc(S(=O)(=O)Nc2cc(C)on2)cc1)C(F)(F)F (stereo not shown) | 8.76
Cc1ccc(COC(=O)c2cc(S(=O)(=O)N3CCCCC3)ccc2N2CCOCC2)cc1 | -1.22
CCn1c(CSc2nnc(-c3ccoc3C)n2C)nc2cc(S(=O)(=O)N(C)C)ccc21 | 10.6
CC(=O)c1cc(F)c(N2CCN(C(=O)c3ccco3)CC2)cc1C | 1.87
O=C(Nc1ccc(Br)cc1Br)C1CC(=O)N(Cc2ccccc2)C1 (stereo not shown) | 8.64
COc1ccc2c(c1)c(=O)oc1c(C)c(OCC(=O)N3CCc4ccccc4C3)ccc12 | 11.4
O=C(NC(=S)NCCN1CCOCC1)c1ccc(Cl)cc1 | -0.0515
O=C(CNC(=O)c1ccco1)Nc1ccc(N2CCCCCC2)cc1 | 11.8
O=C(OCc1nnn(Cc2ccccc2)c1-c1c(COC(=O)c2ccccc2)nnn1Cc1ccccc1)c1ccccc1 | 9.98
Cc1ccnc(NC(c2cccnc2)c2ccc3cccnc3c2O)c1 (stereo not shown) | 12.1
CC(=O)c1ccc(OCC(=O)N(CCC2=CCCCC2)c2c(N)n(Cc3ccccc3)c(=O)[nH]c2=O)cc1 | -1.26
CC(=O)N/C(N)=N/c1nc(=O)c2ccccc2s1 | 6.82
Cc1ccc(S(=O)(=O)NC(C)(C)CN2CCC(Cc3ccccc3)CC2)cc1.O=C(O)C(=O)O | -0.184
Cc1ccc(CNC(=O)CCS(=O)(=O)c2ccc3c(c2)NC(=O)CS3)cc1 | 3.54
O=C(Cn1cnc2c(cnn2-c2ccc(Cl)cc2)c1=O)NCC1CCCO1 (stereo not shown) | -0.591
CN(Cc1ccccc1)c1nc2c(c(=O)[nH]c(=O)n2C)n1Cc1ccccc1Cl | -3.61
O=C1c2ccccc2C(=O)N1Cc1ccccc1F | 17.8
CCc1ccc(C(=O)NC(CC(C)C)C(=O)O)cc1 (stereo not shown) | -1.75
